# Some of the results follow.
# T1: UNK ZnF1-6 (called full-length) (human, UniProt Q9C0B0 30-357)
# T1 sequence: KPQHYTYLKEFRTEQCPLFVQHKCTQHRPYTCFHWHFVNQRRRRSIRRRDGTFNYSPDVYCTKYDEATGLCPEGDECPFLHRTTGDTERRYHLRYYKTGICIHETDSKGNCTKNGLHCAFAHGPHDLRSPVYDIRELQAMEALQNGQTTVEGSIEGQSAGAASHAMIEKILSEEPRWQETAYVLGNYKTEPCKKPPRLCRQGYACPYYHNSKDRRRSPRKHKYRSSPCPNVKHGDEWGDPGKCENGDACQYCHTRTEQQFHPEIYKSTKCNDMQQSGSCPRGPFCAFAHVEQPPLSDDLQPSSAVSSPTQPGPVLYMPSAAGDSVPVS
# B1: chr13:109754583:109754684:-|3pUTR|ENSG00000185950|msi1|total|mutant (ssRNA)
# RNA: GGGAGUUCUACAGUCCGACGAUCGAUCUCCCUGAACAUUUUUAAGGUUUUACUUUUCUGAAAUUAUACAUCACAGCAGUGCACCGGCCAUAUAAUGUCCGCUGGAAGGUCAAUUUCAGUGUAUGAUAUACUUUAUUAAGAUGUCAACAGAGGAUUGAGCAUCA
# B2: chr16:2708819:2708933:+|3pUTR|ENSG00000167977|unk|FALSE|unique (ssRNA)
# RNA: GGGAGUUCUACAGUCCGACGAUCCUCUCUGGGGAGCUGCUGGCCGCUUAGCGUUGUUUGAUUUUUGACCUUGACAUAGUAGAUAGGCUUGUGGUUUUUUUAAUUUAAAGAUAUUAAGACUUAAUUCACUAAAAUUUAUUCUAACAACAGAGGAUUGAGCAUCA
# B3: chr11:57661263:57661364:+|CDS|ENSG00000172409|unk|FALSE|unique (ssRNA)
# RNA: GGGAGUUCUACAGUCCGACGAUCCCACCUACUGAGUGUUAGCACUGCCGAGGGUACAGAGGAGAACCUGUCCGAGACAAGUGUAGCUGGCUUCAUUGUGGUGACCAGUGUGGACCUGGAGCAUCAGGUGUUUACUGUUCUGUCCAACAGAGGAUUGAGCAUCA
# B4: chr11:64204363:64204470:+|3pUTR|ENSG00000168439|unk|FALSE|unique (ssRNA)
# RNA: GGGAGUUCUACAGUCCGACGAUCGCCCUCGAGUUCCAUGUCUCUUUCCCCUGCCCCUAGUUGCUGUCUCGGCUGCUCUCCCAUAGUUGGUUUUUUUUUUAUUUGGGGCAGUGGGCAUGUUAUGGGGAGGGGAGGGGGUUCUUCCAACAGAGGAUUGAGCAUCA
# B5: chr5:138934237:138934351:+|3pUTR|ENSG00000044115|msi1_unk|total|mutant (ssRNA)
# RNA: GGGAGUUCUACAGUCCGACGAUCUUUCCAAGAACACCGUUUAAGUUGAUUAAAAAUGCUUUCCGAAUGCAGGAGCCUACUUCCCGCUGUAUUUUUUGUAUGCUUAAAUAAAAAUAAAAAUUCAUAACCAAAGAGAAUCCCACACAACAGAGGAUUGAGCAUCA
# B6: chr17:68278117:68278284:-|CDS|ENSG00000108932|unk|total|mutant (ssRNA)
# RNA: GGGAGUUCUACAGUCCGACGAUCGCUUUGUUCCAAAGCCAAUGUGUAUACUGAAGUGCCUGAUGGAGGAUGGGGCUGGGCGGCCGCUGUUUCAUUUUUCUUCGUUGAAGUCUUCACCUACGGCAUCAUCAAGACAUUUGGUGUCAACAGAGGAUUGAGCAUCA
# B7: chr14:103503186:103503248:+|CDS_3pUTR|ENSG00000075413|msi1_unk|FALSE|overlapping (ssRNA)
# RNA: GGGAGUUCUACAGUCCGACGAUCUGCUUCCAAAAUUGCCAAUGAGCUAAAGCUGUAACCCAGUGAUUAUGAUGUAAAUUAAGUAGCAAUUAAAGUGUUUUCCUGAACACUGAUGGAAAUGUAUAGAAUAAUAUUUAGGCAAUACAACAGAGGAUUGAGCAUCA
# B8: chr15:44524374:44524475:+|3pUTR|ENSG00000137770|msi1|total|mutant (ssRNA)
# RNA: GGGAGUUCUACAGUCCGACGAUCUAUCUAUCUCAGAUCGAAUACAUACCGCCGGCCGGCUAAAACAGAAGAGUCUUCCGAACCCGUGCAACUCCAGUGAAAUUUUUUAUGUACAGGACAUCUGCAGUUUAUAAAGAAUUCUGUCAACAGAGGAUUGAGCAUCA
# B9: chr1:178479239:178479534:-|three_prime_utr|ENSG00000188585|control|control|control (ssRNA)
# RNA: GGGAGUUCUACAGUCCGACGAUCCAGUUUCUGUUUCAUGCAAUCUUCUCUGGAUUUUGAGUAAAUUUUAAUUUUUUAAUCCCUAGUAGAACAAGAUUAGGAAGAACUCGACAUGUGCCAAAAAGCACAGACCUACAACUAACACAACAGAGGAUUGAGCAUCA
# B10: chr10:92050442:92050545:-|3pUTR|ENSG00000107864|unk|FALSE|unique (ssRNA)
# RNA: GGGAGUUCUACAGUCCGACGAUCAUGAAGGCCUGCUAGCACUAGCGUGGACAUUUUUCUAGCAUUCACCCUUGGGCUGCAGAUAGUAAUAUAUAAACACACACAAUGAUUGCAAGACUAUGUAAAUCUUUUUUUAAUCUUCUUCAACAGAGGAUUGAGCAUCA
# B11: chr16:785952:786377:-|CDS|ENSG00000007376|control|control|control (ssRNA)
# RNA: GGGAGUUCUACAGUCCGACGAUCCAGUCGCUGGACCAGCUCGUGCAGGCCUUACGGGCCACCCCCGACCCUGACCCCGAGGAUAGGGGCCCCAGGCCAGGCAGCCCCUCCGCACUCCUGCCUGGGCCCGGCCGGCCUCCUCCACAACAGAGGAUUGAGCAUCA
# B12: chr3:75729960:75730612:-|three_prime_utr|ENSG00000227124|control|control|control (ssRNA)
# RNA: GGGAGUUCUACAGUCCGACGAUCACUUCUGGCCAUCAUAUUGUUCUUUUAUUUUUCCAAAUUUCACAUCACCAGUAACAAACUAGCUGUGAUCAUGGCAGAUAGCCUGGAAAUAAAACUCCCCUUUUUACCCUUUGCACAGCACAACAGAGGAUUGAGCAUCA
# B13: chr11:119045269:119045370:-|3pUTR|ENSG00000149428|msi1|FALSE|unique (ssRNA)
# RNA: GGGAGUUCUACAGUCCGACGAUCUGUGGUUAAAAAUGGAAACUGUUCUCCUCCCCAGCCCCACUCCCUGUUCCCUACCCAUAUAGGCCCUAAAUUUGGGAAAAAUCACUAUUAAUUUCUGAAUCCUUUGCCUGUGGGUAGGAACAACAGAGGAUUGAGCAUCA
# B14: chr7:151349087:151349194:+|CDS|ENSG00000013374|unk|total|mutant (ssRNA)
# RNA: GGGAGUUCUACAGUCCGACGAUCCCUUGCUAAGCAGUACUCUGACAGACCCGAAUGCUGUGAAAAUGAAGCCGAAAAGGUAACCGAAGAAAUACGUUGCAAGGCAAUUGAGCGUGGAACAGGAAAUGACAAUUACCGAACAACCAACAGAGGAUUGAGCAUCA
# Target: T1, UNK ZnF1-6 (called full-length)
# Test: nsRBNS (natural sequence RNA bind-n-seq); RBNS binding buffer (assumed for nsRBNS): 25 mM Tris pH 7.5, 150 mM KCl, 3 mM MgCl2, 0.01% Triton X-100, 500 ug/ml BSA, 20 U/ml SUPERase-In, 4 C; UNK is unkempt and MSI1 is Musashi-1; names of the RNAs are library labels; protein concentration not given here; high values mean tight binding
row,Binder,binding signal
1,B1,0.699 enrichment R
2,B2,14.8 enrichment R
3,B3,0.603 enrichment R
4,B4,20.5 enrichment R
5,B5,0.779 enrichment R
6,B6,0.708 enrichment R
7,B7,11.1 enrichment R
8,B8,0.524 enrichment R
9,B9,0.449 enrichment R
10,B10,3.34 enrichment R
11,B11,0.526 enrichment R
12,B12,0.746 enrichment R
13,B13,0.528 enrichment R
14,B14,0.354 enrichment R
